In all, about 350,000 compounds went through this assay and about 9,900 (2.8%) were called active. This list was built around the results that the source calls inconclusive (neither active nor inactive); the mix of calls is not that of the screen. The call rests on the fitted dose curve; in most records, active means well fitted activation curve with a large enough effect; inconclusive means small, poorly fitted or top-dose-only effect; inactive means no such curve, though single readings can be large or run the other way. No potency is given beside an inconclusive call; the fits are too rough.
Experiment: A quantitative high throughput screen for small molecules that induce DNA re-replication in MCF 10a normal breast cells. Further: nearly all actives have a fitted effect of over 50% in size. On activity, positive = re-replication: % of control where 0% means no effect.
Conditions: MCF 10A DNA re-replication, Hoechst nuclear intensity, 48 h; activity, positive = re-replication: at 46.1 µM (top of the series)
Potency means the concentration at half of the fitted maximal effect; tags describe the fitted curve by direction and shape.

Question: With `COc1cccc(CNC(=O)Cn2cccc2)c1` as the molecule, how does the “activity, positive = re-replication” value read?
Answer: inactive: 0.632%

Question: Which Potency does the source give for `COc1ccccc1NC(=O)Nc1ccc(-n2ccc(C(F)(F)F)n2)cc1` here?
Answer: inconclusive [activator, partial curve, poor fit]

Question: For `COc1ccc(C(=O)Nc2nc3ccccc3s2)c(OC)c1`, which Potency is on record?
Answer: inconclusive [activator, single point]

Question: For `CCOc1cc(C(=O)N/N=C(\C)Cc2ccc(OC)cc2)cc(OCC)c1OCC`, which Potency is on record?
Answer: inconclusive [activator, single point]

Question: With `C[C@@H]1CN([C@@H](C)CO)C(=O)c2cc(NC(=O)C3CC3)ccc2O[C@@H]1CN(C)C(=O)NC1CCCCC1` as the molecule, how does the “activity, positive = re-replication” value read?
Answer: inactive: -4.55%

Question: For `COc1cc(NC(=O)Cc2ccccc2)ccc1NC(=O)Cc1ccccc1`, which Potency is on record?
Answer: inconclusive [activator, single point]

Question: For `CN(c1ccc(OCC(=O)N2CCCCC2)cc1)S(=O)(=O)c1cccs1`, which Potency is on record?
Answer: inconclusive [activator, single point]

Question: For `CC(C)n1cc(/C=C/c2cc[n+](C)cc2)c2ccccc21`, which Potency is on record?
Answer: active: 6.51 µM

Question: For `COc1ccc(OCC2c3cc(OC)c(OC)cc3CCN2C(=O)C(C)C)cc1` (configuration not stated), which “activity, positive = re-replication” value is on record?
Answer: inactive: 0.302%

Question: Which “activity, positive = re-replication” value does the source give for `COc1ccc(CN2C(=O)c3cccc4cccc(c34)C2=O)cc1` here?
Answer: inactive: -4.34%

Question: With `O=S1(=O)CCOC[C@H](Cc2ccccc2)N1Cc1ccc(Cl)cc1` as the molecule, how does the Potency read?
Answer: inconclusive [activator, partial curve, poor fit]

Question: Which Potency does the source give for `CCN(CCNC(=O)C1CCCN(Cc2nc(-c3ccc(OC)cc3)oc2C)C1)c1ccccc1` (configuration not stated) here?
Answer: inconclusive [activator, single point]

Question: For `CCO[C@H]1OC(C(=O)NC2CC2)=C[C@@H](c2ccccc2)[C@@H]1CCCO`, which Potency is on record?
Answer: active: 23.1 µM

Question: With `Fc1ccccc1Cc1noc(CN2CCN(C/C=C/c3ccccc3)CC2)n1` as the molecule, how does the Potency read?
Answer: inconclusive [activator, single point]

Question: Which “activity, positive = re-replication” value does the source give for `C[C@@]12C(=O)Nc3ccc(Cl)cc3C(=O)N1[C@H]1c3cc(Br)ccc3OC[C@@H]1[C@@H]2c1ccccc1` here?
Answer: inactive: 1.3%

Question: With `COc1ccc(NC(=O)c2cccc(N3C(=O)NC4CC3(C)Oc3ccccc34)c2)cc1` (configuration not stated) as the molecule, how does the “activity, positive = re-replication” value read?
Answer: inactive: 9.62%

Question: Which Potency does the source give for `CN(C)/C(=N\S(=O)(=O)c1ccc(Br)cc1)c1ccccc1` here?
Answer: inconclusive [activator, single point]

Question: For `CC1(C)CC(=O)C2=C(C1)Oc1ncn(CCO)c(=N)c1C2c1ccccc1` (configuration not stated), which “activity, positive = re-replication” value is on record?
Answer: inactive: 1.73%

Question: With `CC(C)(C)n1cnc2cc(NC(=O)c3ccccc3)ccc21` as the molecule, how does the Potency read?
Answer: inconclusive [activator, single point]

Question: Which Potency does the source give for `CCCn1c2c(c(O)c(C(=O)NCc3ccccc3)c1=O)CCCC2` here?
Answer: inconclusive [activator, partial curve, poor fit]

Question: Which Potency does the source give for `CCOc1cccc(CNCc2ccncc2)c1` here?
Answer: inconclusive [activator, single point]

Question: Which Potency does the source give for `COc1ccc(N(C(=O)c2snc(C(N)=O)c2N)C(C(=O)NCc2ccccc2)c2ccc(O)cc2)cc1` (configuration not stated) here?
Answer: inconclusive [activator, single point]

Question: Which Potency does the source give for `COc1ccc(CCNS(=O)(=O)c2ccc(OC)c(OC)c2)cc1OC` here?
Answer: inconclusive [activator, partial curve, poor fit]

Question: With `CC(C)Cc1nnc(NC(=O)c2cccc(S(=O)(=O)N3CCN(C)CC3)c2)s1` as the molecule, how does the Potency read?
Answer: inconclusive [activator, partial curve]

Question: For `CC1=C(C(=O)OCc2ccccc2)C(c2cccc(Br)c2)NC(=O)N1` (configuration not stated), which Potency is on record?
Answer: inconclusive [activator, single point]

Question: Which Potency does the source give for `CNC(=O)CSc1nc2cc(S(=O)(=O)Nc3ccccc3OC)ccc2o1` here?
Answer: inconclusive [activator, single point]

Question: For `CCN1CCN(C(=O)C(C)Sc2nnc3nc(C)cc(C)n23)CC1` (configuration not stated), which “activity, positive = re-replication” value is on record?
Answer: inactive: -3.73%

Question: For `CC(C)C1COC(c2cccn2Cc2ccccc2Cl)=N1` (configuration not stated), which Potency is on record?
Answer: inconclusive [activator, single point]

Question: For `COC(=O)CNC(c1ccccc1Cl)c1cc(Br)ccc1NS(=O)(=O)c1ccc(C)cc1` (configuration not stated), which Potency is on record?
Answer: inconclusive [activator, full curve, poor fit]

Question: Which Potency does the source give for `COc1ccc(/C=N/NC(=O)NC23CC4CC(CC(C4)C2)C3)c(OC)c1` here?
Answer: inconclusive [activator, full curve, poor fit]

Question: With `O=C(N/N=C/c1sc(N2CCCCC2)nc1-c1cccs1)C1CC1` as the molecule, how does the Potency read?
Answer: inconclusive [activator, single point]

Question: With `CCOC(=O)c1ccc(NC(=O)CSCC(=O)OCC(=O)c2ccccc2)cc1` as the molecule, how does the Potency read?
Answer: inconclusive [activator, partial curve, poor fit]

Question: Which “activity, positive = re-replication” value does the source give for `C/C(=N/NC(=O)CNC(=O)C1COc2ccccc2O1)c1ccc([N+](=O)[O-])cc1` (configuration not stated) here?
Answer: inactive: -32.3%

Question: Which “activity, positive = re-replication” value does the source give for `O=C1CCCN1c1ccc(S(=O)(=O)NCCc2ccc(Cl)cc2)cc1` here?
Answer: inactive: 5.37%

Question: With `COc1cc(NC(=O)c2cc(-c3ccccc3)nc3c2cnn3C(C)C)cc(OC)c1OC` as the molecule, how does the Potency read?
Answer: inconclusive [activator, single point]

Question: With `CCn1cc(/C=C(\NC(=O)c2ccccc2OC)C(=O)N2CCN(C)CC2)c2ccccc21` as the molecule, how does the Potency read?
Answer: inconclusive [activator, partial curve]

Question: With `COc1ccc(Br)cc1C(=O)Nc1ccc(O)cc1` as the molecule, how does the Potency read?
Answer: inconclusive [activator, partial curve, poor fit]

Question: Which Potency does the source give for `COCCNC(=O)Cn1ccc2cc(S(=O)(=O)N3CCCCC3)ccc21` here?
Answer: inconclusive [activator, partial curve, poor fit]

Question: With `CCN(CC)S(=O)(=O)c1ccc(N2CCN(S(=O)(=O)c3ccccc3C#N)CC2)nc1` as the molecule, how does the Potency read?
Answer: inconclusive [activator, single point]

Question: Which Potency does the source give for `CCN(C(=O)c1cc2c(=O)[nH]c3ccc(C)cc3c2s1)c1ccc(F)cc1` here?
Answer: active: 16.4 µM

Question: For `O=C1CC(c2ccc(Cl)cc2)CC(=O)C1CS(=O)(=O)c1ccccc1` (configuration not stated), which Potency is on record?
Answer: inconclusive [activator, single point]

Question: For `Cc1ccccc1Cn1c(=N)n(CC(=O)c2ccc([N+](=O)[O-])cc2)c2ccccc21`, which Potency is on record?
Answer: inconclusive [activator, single point]

Question: With `COc1ccccc1NC(=S)N1CCN(c2ccccc2F)CC1` as the molecule, how does the “activity, positive = re-replication” value read?
Answer: inactive: 10.9%

Question: For `O=[N+]([O-])c1cc(S(=O)(=O)N2CCCC2)ccc1O`, which Potency is on record?
Answer: inconclusive [activator, single point]

Question: Which “activity, positive = re-replication” value does the source give for `CCCNC(=O)CCn1nc(-c2ccc(C)cc2)c2ccccc2c1=O` here?
Answer: inactive: 2.38%

Question: With `O=[N+]([O-])c1cc(S(=O)(=O)C(F)(F)F)ccc1Sc1nc2ccccc2[nH]1` as the molecule, how does the Potency read?
Answer: active: 3.66 µM

Question: Which Potency does the source give for `CCCn1c(N)cc(=O)n(CCC)c1=O` here?
Answer: inconclusive [activator, single point]

Question: Which “activity, positive = re-replication” value does the source give for `CCCCCOc1ccc(C2C(C(=O)c3ccc(C)o3)=C(O)C(=O)N2c2cc(C)on2)cc1` (configuration not stated) here?
Answer: inactive: -4.88%

Question: With `COc1ccc(-c2[nH]n(-c3ccc([N+](=O)[O-])cc3)c(=O)c2C=NCC2CCCO2)cc1` (configuration not stated) as the molecule, how does the Potency read?
Answer: inconclusive [activator, single point]

Question: With `Cn1c(=O)c2c(nc(CN3CCN(c4ccc(F)cc4)CC3)n2Cc2ccccc2F)n(C)c1=O` as the molecule, how does the Potency read?
Answer: inconclusive [activator, partial curve, poor fit]

Question: For `O=C(N/N=C\c1cccnc1)c1cc(-c2ccccc2)nc2c(Cl)cccc12`, which Potency is on record?
Answer: active: 7.31 µM

Question: For `COC(=O)c1sc(NC(=O)COc2cccnc2[N+](=O)[O-])c(C(=O)OC)c1C`, which “activity, positive = re-replication” value is on record?
Answer: inactive: 24%

Question: With `Cc1ccc(NS(=O)(=O)c2ccc(-c3cnc(C4CC4)o3)cc2)cc1` as the molecule, how does the Potency read?
Answer: active: 10.3 µM

Question: Which Potency does the source give for `CCN1C(=O)N[C@@H](c2ccco2)C(C(C)=O)=C1C` here?
Answer: inconclusive [activator, partial curve, poor fit]

Question: For `Cc1cccc(NC(=S)NNC(=O)c2csc(C(C)C)c2)c1`, which Potency is on record?
Answer: inconclusive [activator, partial curve, poor fit]

Question: Which Potency does the source give for `Cc1ccc2nc(C)cc(N/N=C/c3ccc(F)cc3)c2c1` here?
Answer: inconclusive [activator, single point]

Question: With `NS(=O)(=O)c1ccc(CCNC(=O)CSc2ncnc3ccccc23)cc1` as the molecule, how does the Potency read?
Answer: inconclusive [activator, partial curve, poor fit]

Question: Which Potency does the source give for `COc1ccc(NS(=O)(=O)c2ccc(C(=O)N3CCCCCC3)cc2)cc1` here?
Answer: inconclusive [activator, partial curve, poor fit]

Question: For `COc1cccc(C2CN(c3ccc(F)cc3F)N=C2c2cccs2)c1OC` (configuration not stated), which Potency is on record?
Answer: inconclusive [activator, partial curve, poor fit]

Question: For `O=C(CSc1nc2ccc(Cl)cc2[nH]1)NCCc1ccc(Cl)cc1`, which Potency is on record?
Answer: inconclusive [activator, partial curve, poor fit]

Question: With `CC(NC(=O)c1ccccc1Cl)C1CC2CCC1C2` (configuration not stated) as the molecule, how does the “activity, positive = re-replication” value read?
Answer: inactive: -3.99%

Question: For `O=C(CSc1ccccc1C(=O)O)NC1CCCCCC1`, which “activity, positive = re-replication” value is on record?
Answer: inactive: 6.44%

Question: Which “activity, positive = re-replication” value does the source give for `Cc1cc2nnc(SCC(=O)NCc3cccs3)n2c2ccccc12` here?
Answer: inactive: 8.24%

Question: Which Potency does the source give for `Cc1cccc(C(=O)Nc2sc3c(c2C(=O)O)CCCC3)c1` here?
Answer: inconclusive [activator, partial curve, poor fit]

Question: Which “activity, positive = re-replication” value does the source give for `Cc1ccc(NC(=S)N(CCN(C)C)Cc2cc3cc(C)ccc3[nH]c2=O)cc1` here?
Answer: inactive: 8.18%

Question: For `Cc1ccccc1NC(=S)NCCSc1ccc(Cl)cc1`, which Potency is on record?
Answer: inconclusive [activator, single point]

Question: For `O=C(N/N=C/c1cn(-c2cccs2)nc1-c1ccccc1)c1ccccc1Cl`, which Potency is on record?
Answer: inconclusive [activator, partial curve, poor fit]

From PubChem BioAssay AID624296 (National Center for Advancing Translational Sciences (NCATS), 2012)
